{"source": "paper PMC5700166", "note": "The list shows a part of the results, in another mix than the full data. The list includes weakly bound sequences."}
{"target": "T1, GST-Ap-NF-kB RHD (UniProt A0A913YAJ5)", "T1 sequence": "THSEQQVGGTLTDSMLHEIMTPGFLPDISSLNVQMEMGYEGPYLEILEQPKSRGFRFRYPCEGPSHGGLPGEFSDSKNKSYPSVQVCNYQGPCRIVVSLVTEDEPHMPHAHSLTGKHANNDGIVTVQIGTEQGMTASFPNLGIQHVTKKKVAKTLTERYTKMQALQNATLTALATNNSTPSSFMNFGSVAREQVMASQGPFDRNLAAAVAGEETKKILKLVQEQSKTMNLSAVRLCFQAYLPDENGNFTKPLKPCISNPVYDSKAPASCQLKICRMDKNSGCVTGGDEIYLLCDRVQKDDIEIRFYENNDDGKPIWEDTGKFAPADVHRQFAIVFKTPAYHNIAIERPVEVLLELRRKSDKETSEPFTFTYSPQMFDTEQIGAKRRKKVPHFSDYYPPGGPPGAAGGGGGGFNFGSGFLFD", "assay": "protein-binding microarray (PBM)", "conditions": "PBM: ~300 nM protein, 6 mM HEPES pH 7.8, 80 mM KCl, 0.5 mM EDTA, 0.5 mM EGTA, 6% glycerol, 35 ng/ul poly-dIdC, 1% milk, 1 h, room temperature; Ap Aiptasia and Nv Nematostella (sea anemones) / Co Capsaspora / Aq Amphimedon (sponge) / Dm Drosophila / Hu human; RHD is the Rel homology domain; high values mean tight binding; most listed sequences are background and not binding sites; double strand, one strand shown", "units": {"binding signal": "z-score"}}
{"sequence": "CCGATTAACATCAGAAAATTTCCTGATGTTAATCGGGTCTTGATTCGCTTGACGCTGCTG", "binding signal": -0.12}
{"sequence": "CCGATTAACATCACAAATTTTCCTGATGTTAATCGGGTCTTGATTCGCTTGACGCTGCTG", "binding signal": -0.106}
{"sequence": "CCGATTAACATCAAGGCAATTCCTGATGTTAATCGGGTCTTGATTCGCTTGACGCTGCTG", "binding signal": -0.396}
{"sequence": "CCGATTAACATCAGGAAACTACATGATGTTAATCGGGTCTTGATTCGCTTGACGCTGCTG", "binding signal": 0.0409}
{"sequence": "CCGATTAACATCAGAAATTCCCCTGATGTTAATCGGGTCTTGATTCGCTTGACGCTGCTG", "binding signal": 9.89}
{"sequence": "CCGATTAACATCAAAGGATTTCCTGATGTTAATCGGGTCTTGATTCGCTTGACGCTGCTG", "binding signal": -0.269}
{"sequence": "CCGATTAACATCACCGCAGCATGTGATGTTAATCGGGTCTTGATTCGCTTGACGCTGCTG", "binding signal": 0.261}
{"sequence": "CCGATTAACATCAGAAAATTACATGATGTTAATCGGGTCTTGATTCGCTTGACGCTGCTG", "binding signal": -0.78}
{"sequence": "CCGATTAACATCAGGAATTGCCATGATGTTAATCGGGTCTTGATTCGCTTGACGCTGCTG", "binding signal": -0.112}
{"sequence": "CCGATTAACATCAAGTAATTTTCTGATGTTAATCGGGTCTTGATTCGCTTGACGCTGCTG", "binding signal": -0.328}
{"sequence": "CCGATTAACATCATGGTACTTGTTGATGTTAATCGGGTCTTGATTCGCTTGACGCTGCTG", "binding signal": 0.718}
{"sequence": "CCGATTAACATCAGTAGTTTCCATGATGTTAATCGGGTCTTGATTCGCTTGACGCTGCTG", "binding signal": -0.167}
{"sequence": "CCGATTAACATCACGTTATTTCCTGATGTTAATCGGGTCTTGATTCGCTTGACGCTGCTG", "binding signal": 0.283}
{"sequence": "CCGATTAACATCAAGTTTTTTCCTGATGTTAATCGGGTCTTGATTCGCTTGACGCTGCTG", "binding signal": -0.186}
